Data from PubChem BioAssay AID248 (DTP/NCI, 2004).
Toxic doses and inconclusive results are not listed. For part of its entries the source gives two or more results. The other results are left out here. An entry can have further records. The records of an entry repeat one measurement across runs, samples, wells, individuals or studies. Brackets tell where a record comes from. A, B and so on number the origins entry by entry.

Tested on: L1210 leukemia ip in BDF1 mice, survival T/C
Assay: NCI In Vivo Anticancer Drug Screen. Data for tumor model L1210 Leukemia (intraperitoneal) in B6D2F1 (BDF1) mice
Conditions: endpoint: mean survival time, higher = longer survival
[1] = dose: 200.0 mg/kg/injection, schedule: Q01DX001 (ip), vehicle: carboxymethylcellulose (CMC)

COC1OC(CO)C(O)C(NC(=O)N(C)N=O)C1O (configuration not stated)
T/C (dose: 200.0 mg/kg/injection, schedule: Q01DX009 (ip), vehicle: saline): 100 % of control [sample A] and 177 % of control, 193 % of control [sample B]

CC(=O)Nc1ccn(C2OC(COC(C)=O)C(OC(C)=O)C2OC(C)=O)c(=O)n1 (configuration not stated)
T/C (dose: 400.0 mg/kg/injection, schedule: Q01DX Z (ip), vehicle: carboxymethylcellulose (CMC)): 119 % of control and 190 % of control

O=c1cnn(C2OC(CO)C(O)C2O)c(=O)[nH]1 (configuration not stated)
T/C (dose: 400.0 mg/kg/injection, schedule: Q01DX Z (oral), vehicle: saline): 93 % of control and 166 % of control

O=C(C(=O)N1CC2OC2C1)N1CC2OC2C1 (configuration not stated)
T/C (dose: 100.0 mg/kg/injection, schedule: Q04DX002 (ip), vehicle: saline with Tween-80): 105 % of control and 333 % of control

NC(=O)SCC(=O)Nc1ccc2ncccc2c1
T/C [1]: 89 % of control, 109 % of control, 166 % of control

CN(C)CCOC(=O)N1c2ccccc2C(C)(C)c2ccccc21
T/C (dose: 100.0 mg/kg/injection, schedule: Q01DX001 (ip), vehicle: water): 91 % of control and 183 % of control

CCCCCCOB(OCCCCCC)OCCCCCC
T/C [1]: 95 % of control, 100 % of control, 156 % of control

Cc1ccc(O)c(C)n1
T/C (dose: 100.0 mg/kg/injection, schedule: Q01DX009 (ip), vehicle: saline): 106 % of control and 154 % of control

CCN(CC)CC(C)Nc1ccc([N+](=O)[O-])c2sc3ccccc3c(=O)c12 (configuration not stated)
T/C (dose: 41.0 mg/kg/injection, schedule: Q01DX Z (ip), vehicle: methylcellulose (MC)): 116 % of control and 150 % of control | T/C (dose: 60.0 mg/kg/injection, schedule: Q01DX Z (ip), vehicle: carboxymethylcellulose (CMC)): 122 % of control, 185 % of control, 195 % of control | T/C (dose: 90.0 mg/kg/injection, schedule: Q01DX Z (ip), vehicle: carboxymethylcellulose (CMC)): 92 % of control and 171 % of control

CCCCC(CCCC)(S(=O)(=O)CC)S(=O)(=O)CC
T/C (dose: 400.0 mg/kg/injection, schedule: Q01DX001 (ip), vehicle: carboxymethylcellulose (CMC)): 94 % of control, 95 % of control, 166 % of control
